The record followed here is PubChem BioAssay AID1240 (Sanford-Burnham Center for Chemical Genomics, 2008).

In all, about 50,000 compounds went through this assay and about 800 (1.6%) showed an effect of 50% or more. Some of the results follow.

This assay deals with Bcl-2-like protein 10 (Homo sapiens) (UniProt Q9HD36). In words: TR3 peptide-Bcl-B binding displacers, biochemical primary FP assay, phenotype converters (AID 1240).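 Further: 0% = Bcl-B with tracer peptide and DMSO and 100% = tracer peptide lacking Bcl-B.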 Particulars: GST-Bcl-B / FITC-TR3 peptide fluorescence polarization; stronger effect = higher value; compound at 3.75 mg/L.
UniProt Q9HD36, sequence (Q9HD36 whole entry, looked up): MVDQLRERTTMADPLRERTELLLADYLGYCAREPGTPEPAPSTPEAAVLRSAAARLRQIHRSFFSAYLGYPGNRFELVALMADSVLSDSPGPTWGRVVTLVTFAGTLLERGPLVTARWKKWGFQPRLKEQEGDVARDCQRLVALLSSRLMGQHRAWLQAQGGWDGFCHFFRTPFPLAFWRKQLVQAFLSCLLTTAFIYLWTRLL
On to `Cc1cccc(OCCCCNC(C)(C)C)c1C`, for which the displacement is -1.1%.
Then `Nc1nc(Nc2ccccc2)nc(NCc2ccccc2)c1[N+](=O)[O-]`, with 4.6%; and `Cc1cccc(-n2c(C)cc(C=C3C(=O)NC(=S)NC3=O)c2C)c1`, with 72.3%; and `COc1ccccc1NC(=O)C(=O)N/N=C/c1ccc2c(c1)OCO2`, with 8.5%.
Then `c1ccc(C2CC3CC(c4ccccc4)N2O3)cc1` (configuration not stated), with 1.9%; and `Cc1cc(C(=O)Nc2cccc(C)c2C)ccc1[N+](=O)[O-]`, with 15.9%; and `Cc1ccc(/C(N)=N/OC(=O)c2ccc(Br)cc2)cc1`, with -1.1%.
On to `CN(C)c1cc(N/N=C/c2ccncc2)nc(N(C)C)n1`, for which the displacement stood at 10.6%.
For `O=C(/C=C/c1ccc(-c2cccc([N+](=O)[O-])c2)o1)c1cc2ccccc2o1`, the displacement worked out at 119%.
Next, `CCN(CC)c1ccc(NC(=O)c2cccnc2)cc1`: 18.5%; `COC(=O)c1ccc(C2Nc3ccc4ccccc4c3C3=C2CC(C)(C)CC3=O)cc1` (configuration not stated): 23.7%.
Next, `O=C(Nc1ccc(F)c([N+](=O)[O-])c1)c1ccc2ccccc2c1`: 12.9%.
For `CC1(C)CC(=O)C(C(C2=C(O)CC(C)(C)CC2=O)c2ccccc2Cl)C(=O)C1` (configuration not stated), the displacement was -3.4%.
Take `CCC(=O)Nc1sc2c(c1C(=O)Nc1ccccc1Cl)CCCC2`: the displacement turned out to be 11.8%.
Consider `O=C(CSc1nc2ccccc2[nH]1)c1ccc(-c2ccccc2)cc1`, for which the displacement was 14.5%.
Take `CCOC(=O)C1=C(O)/C(=C\c2cccc([N+](=O)[O-])c2)SC1=Nc1ccc(OC)cc1`: the displacement is -16.3%.
Take `Oc1ccccc1C=Nc1ccc2c(c1)ncn2CCn1cnc2cc(N=Cc3ccccc3O)ccc21`: the displacement was 115%.
In the case of `CCOC(=O)c1c(-c2ccc(OC)cc2)csc1NC(=O)C1CC=CCC1C(=O)O` (configuration not stated), the displacement came out at 7.1%.
With `CCCOc1ccc(N2C(=O)CC(SC(N)=Nc3ccccc3)C2=O)cc1` (configuration not stated), the displacement was found to be 6.5%.
Then `O=C(Cc1ccccc1)Nc1nc(-c2ccc3c(c2)Cc2ccccc2-3)cs1`, with 11%; and `CCOC(=O)CSc1nc2c(c(=O)n1-c1ccc(OC)cc1)C1(CCCCC1)Cc1ccccc1-2`, with -5%.
With `COc1ccc(C2C(C#N)=C(N)Oc3c2sc2ccccc32)c2ccccc12` (configuration not stated), the displacement was -6.7%.
Turning to `COCCNC(=S)Nc1c(C)n(C)n(-c2ccccc2)c1=O`, the displacement is 1.8%.
On to `COc1ccc(NC(=O)COc2ccc(Br)c(C)c2)cc1OC`, for which the displacement is -9.1%.
Next, `CCS/C(=N/Nc1cccc(Cl)c1C)C(C)=O`: 7.3%.
With `Cc1cc(NCCO)nc(-n2nc(C)cc2C)n1`, the displacement is 12.1%.
Take `O=S(=O)(c1ccccc1)N1CCN(S(=O)(=O)c2ccccc2)C(O)C1O` (configuration not stated): the displacement is -1.5%.
For the molecule `NC(=O)c1ccccc1NC(=O)c1ccccc1[N+](=O)[O-]`, the displacement worked out at 5%.
Regarding `CC(=O)Nc1nc2ccccc2n1Cc1ccc(C)cc1`, the displacement is -16.7%.
Consider `COc1ccc(C(=O)Nc2cc(C)ccc2O)cc1`, for which the displacement is -3.2%.
Then `Cc1cccc(C(=O)Oc2ccc3c(C)cc(=O)oc3c2)c1`, with -2.9%; and `Cc1ccc(N2CC(C(=O)NCc3ccco3)CC2=O)cc1` (configuration not stated), with 4%.
Next, `CCC1=NN2C(=N)/C(=C/c3ccc(F)cc3)C(=O)N=C2S1`: 7.5%.
Regarding `O=C(COc1ccc2ccccc2c1)N/N=C/c1ccccc1[N+](=O)[O-]`, the displacement was -1.9%.
With `COC(=O)c1ccc(N2C(=O)c3ccc(C(=O)c4ccc5c(c4)C(=O)N(c4ccc(C(=O)OC)cc4)C5=O)cc3C2=O)cc1`, the displacement is 5.2%.
With `COC(=O)CN(c1ccc(Br)cc1)S(C)(=O)=O`, the displacement came out at 4.7%.
Next, `COc1ccc(C(=O)N2CCN(C3CCN(Cc4ccccc4)CC3)CC2)cc1`: -3.5%; `Cc1cccc(-c2cc(NC(=O)COc3ccccc3)n[nH]2)c1`: 12.6%.
Regarding `COc1ccc(/C=C/C(=O)c2ccc(F)cc2)cc1[N+](=O)[O-]`, the displacement amounted to 6.5%.
Take `C/C(=N\Nc1nc(C)cc(-c2ccccc2)n1)c1c(F)c(F)c(F)c(F)c1F`: the displacement is -0.6%.
In the case of `C1=C(c2ccc(C3CCCCC3)cc2)N2CCN=C2S1`, the displacement is -2.8%.
With `CCOC(=O)c1c(NC(C)=O)sc2c1CC(C)(C)OC2`, the displacement turned out to be 0%.
Then `COCc1cc(=O)n2[nH]c(-c3ccc(Cl)cc3)cc2n1`, with 7.7%; and `CCC1=NN2C(=N)/C(=C/c3ccc(OCCOc4cccc(OC)c4)c(OC)c3)C(=O)N=C2S1`, with 9.3%.
For the molecule `Cc1ccc(-n2nc3cc(C)c(NC(=O)c4cc5ccccc5o4)cc3n2)cc1`, the displacement stood at 9.1%.
With `COc1ccc(S(=O)(=O)N(CC(=O)Nc2cccc(C(F)(F)F)c2)Cc2ccccc2)cc1`, the displacement was 8.9%.
With `CCOC(=O)c1c(-c2ccccc2)csc1NC(=O)c1ccc(OC(C)C)cc1`, the displacement was -5.9%.
For the molecule `O=C(C(Sc1ccccc1)c1ccccc1)N1CCCC1` (configuration not stated), the displacement was -3%.
For `COc1ccccc1/C=C/C(=O)NCC(=O)N/N=C(/C)c1ccccc1`, the displacement worked out at 1.7%.
`Cc1ccc(C(C)C)c(OCCNC(=O)c2cccs2)c1`: the displacement is -2.3%.
For `C=CCN1C(=O)/C(=C\c2ccc(-c3ccc(F)cc3)o2)C(=O)NC1=S`, the displacement was -3.3%.
Turning to `O=C(Cc1ccccc1)NC(NC(=S)Nc1ccccc1Br)C(Cl)(Cl)Cl` (configuration not stated), the displacement was -15.3%.
Next, `O=C1NC(=S)N(c2ccc(Cl)cc2)C(=O)/C1=C\c1ccc(-c2cccc(C(=O)O)c2)o1`: 16%.
Turning to `COCCN1C(=O)C(=O)/C(=C(/O)c2ccccc2)C1c1ccc(Br)cc1` (configuration not stated), the displacement is -15.9%.
Consider `N/C(=N\N=C\c1cc(Br)cc(Br)c1O)c1nonc1N`, for which the displacement is 0.3%.
On to `CC(=O)OCC12CC=C(C)C(C1)C(c1ccccc1OC(C)=O)OC2` (configuration not stated), for which the displacement is -5.7%.
As to `CN(C)c1ccc(C2C(C#N)=C(N)OC3=C2C(=O)CC(C)(C)C3)cc1` (configuration not stated), the displacement was -1.1%.
Take `COc1cc(/C=N/n2nnnc2N)cc(I)c1O`: the displacement was determined as 0.5%.
Take `COc1cc2c(cc1NC(=O)c1c(-c3ccccc3)noc1C)oc1ccccc12`: the displacement amounted to 1.8%.
Take `Cc1ccc(/C=C2\SC(N3CCCCCC3)=NC2=O)cc1`: the displacement is -19.3%.
For `COCCCN1C(=O)/C(=C\c2ccccc2[N+](=O)[O-])C(C(=O)OC)=C1C`, the displacement was -8.8%.
`CC(C)(C)c1ccc(C2=N/C(=C\c3ccc(C#N)cc3)C(=O)O2)cc1`: the displacement came out at 22.4%.
Next, `CN(C)C(=O)c1c(NC(=O)c2ccco2)sc2c1CCCCC2`: 18.1%; `CC(=O)NC12CC3(C)CC(C)(CC(O)(C3)C1)C2`: -5.3%; `Cc1cc(Cl)ccc1OC(C)C(=O)Nc1ccc(Cl)c([N+](=O)[O-])c1` (configuration not stated): 4.7%.
Turning to `O=[N+]([O-])c1ccccc1S(=O)(=O)NCCOc1ccc(Cl)cc1`, the displacement stood at 10.3%.
On to `CCOc1cc(C(=S)N2CCCCC2)cc(Br)c1O`, for which the displacement is -4.5%.
Consider `CSc1ccccc1N1C(=O)C2CC(C)=C(C)CC2C1=O` (configuration not stated), for which the displacement stood at 11.4%.
Next, `COc1ccc(Br)cc1/C=C/C(=O)Nc1ccc(NC(=O)c2ccco2)c(OC)c1`: -9.2%; `COc1ccc(C2(C(N)=O)CCOCC2)cc1OC`: 3.2%.
Consider `COc1ccc(C(=O)Oc2ccc(/C=c3/sc4nc5ccccc5n4c3=O)cc2)cc1`, for which the displacement is -4%.
As to `COc1ccccc1/C=N/N=C1/NC(=O)C(CC(=O)Nc2ccccc2C(F)(F)F)S1` (configuration not stated), the displacement is -16.3%.
As for `COc1ccc(Cl)cc1C(=O)Nc1ccc(-c2nc3ccccc3[nH]2)cc1`, the displacement is -1.3%.
Turning to `CCOC(=O)C1=C(N)OC2=C(C(=O)CCC2)C1c1ccccc1OCC` (configuration not stated), the displacement is -5.3%.
For the molecule `Oc1ccc(/C=N\N2CCN(c3ccccc3)CC2)c(O)c1`, the displacement is -3.2%.
For `Cc1cc(C)nc(N/N=C/c2ccc(C(F)(F)F)cc2)n1`, the displacement is -25.1%.
Turning to `c1ccc2c(c1)nc(N1CCOCC1)c1ccccc12`, the displacement is -0.6%.
Regarding `CCN1C(=O)c2cccc3c(NC(=O)c4ccc(S(=O)(=O)N5CCCCCC5)cc4)ccc1c23`, the displacement was 88.2%.
Turning to `COc1ccc(C2CC(C(F)(F)F)n3nc(C(=O)NCc4ccco4)c(Br)c3N2)cc1` (configuration not stated), the displacement is -3.3%.
Take `CCN1C(=O)/C(=C\c2ccc(C(F)(F)F)cc2)SC1=S`: the displacement was -4.4%.
In the case of `O=C1CSC(c2ccc(Cl)c(Cl)c2)N1CC12CC3CC(CC(C3)C1)C2` (configuration not stated), the displacement worked out at 16.4%.
With `Cc1cc2sc3ccccc3c(=O)c2cc1O`, the displacement was 25.4%.
For the molecule `CCOC(=O)c1[nH]c(=O)[nH]c1CSc1nc2ccccc2o1`, the displacement was found to be 6.1%.
For the molecule `COc1ccc(/C=N/Nc2cc(OC)ncn2)c(OC)c1`, the displacement was -0.6%.
In the case of `O=C(NCCNc1ccc([N+](=O)[O-])cc1Cl)c1ccccc1Br`, the displacement is 10%.
In the case of `O=C1CCN(C(=O)c2ccccc2)c2cc3ccccc3cc21`, the displacement is 5%.
On to `O=c1[nH]c(=O)n(-c2ccccc2Cl)c(O)c1C=Nc1ccc(Cl)cc1`, for which the displacement came out at 18.6%.
As for `Cc1cc(C)c(-c2csc(NC(=O)c3ccc(Cl)cc3Cl)n2)c(C)c1`, the displacement was -0.2%.
Next, `Cc1c(NC(=O)c2ccccc2N(Cc2ccccc2)S(C)(=O)=O)c(=O)n(-c2ccccc2)n1C`: -2.1%; `O=C(O)c1ccccc1C(=O)Nc1nncs1`: 1.9%; `Fc1ccc(OCCCN2CCOCC2)cc1`: 11.1%.
Turning to `CC(=O)N1c2ccccc2N(Cc2ccc(Cl)c(Cl)c2)C(=O)C1(C)C`, the displacement was -5.3%.
Regarding `Cc1cccc(-c2nc3cc(NC(=O)COc4ccccc4[N+](=O)[O-])ccc3o2)c1`, the displacement amounted to 15.8%.
With `O=C(Nc1ccc2ccccc2c1)C1COc2ccccc2O1` (configuration not stated), the displacement was found to be 4.4%.
As to `C/C(=N\NC(=O)c1ccccc1O)c1ccncc1`, the displacement came out at 0.7%.
As to `CC(=NC1CCCCC1)C1=C(O)c2ccccc2C1=O`, the displacement turned out to be 1.8%.
Take `COc1ccccc1OCC(=O)n1nc(C)cc1C`: the displacement came out at 8.4%.
Then `CC(=O)c1cccc(NC(=O)/C(=C\c2cccnc2)NC(=O)c2ccccc2)c1`, with -5.3%.
In the case of `COc1ccc2nc(SCC(=O)Nc3ccccc3)[nH]c2c1`, the displacement stood at 6.1%.
Regarding `COc1ccc(C2/C(=C(\O)c3ccc(Cl)cc3)C(=O)C(=O)N2CCCCCC(=O)O)cc1` (configuration not stated), the displacement is -4.1%.
Take `COC(=O)C12CC3(C)CC(C)(CC(C)(C3)C1)C2`: the displacement is -1.2%.
For the molecule `O=C1NC(=O)C(=Cc2ccc(OCCOc3ccccc3)cc2)C(=O)N1`, the displacement came out at 0.3%.
Then `O=C(COc1ccc([N+](=O)[O-])cc1)Nc1ccc2oc(-c3ccccc3F)nc2c1`, with 10.7%; and `Cc1ccc(C(=O)N/C(=C\c2ccc(C(C)C)cc2)C(=O)NCCCN2CCOCC2)cc1`, with 11.7%.
With `CC1=C(C(=O)Nc2ccc(Cl)cc2)C(c2ccc([N+](=O)[O-])cc2)NC(=O)N1` (configuration not stated), the displacement was 124%.
As for `Cc1ccc(S(=O)(=O)C(=O)Nc2cccc3nsnc23)cc1`, the displacement is 8.4%.
Then `O=C1NC(=O)N(c2cccc(Br)c2)C(=O)/C1=C/c1ccc(-c2ccccc2C(=O)O)o1`, with -13.6%.
